Assay results reported in PubChem BioAssay (Tox21).
“And” between values parts separate entries of the source, which are not always exact repeats. Equal values may be shown once. Inconclusive results, whose numbers are uncertain, are shown with a selection of clear calls. Potencies beside an inconclusive call are fits to weak or partial responses and may not hold up. The source made the active and inactive calls. Calls follow the shape of the dose curve; as a rule, active = well fitted cell-killing curve with a large enough effect in the repeat runs; inconclusive = weak or mixed curves; inactive = flat fitted curve, though single readings scatter.

assay: qHTS assay to identify small molecule antagonists of the estrogen receptor beta (ER-beta) signaling pathway - cell viability counter screen (AID 1259382); details: ER-beta-UAS-bla HEK293T viability, CellTiter-Glo luminescence, 16 h; series mostly up to 92.4 µM; also: nearly all actives have a fitted effect of over 55% in size
Excerpt: U.S. Tox21 Program National Center for Advancing Translational Sciences [NCATS] NIH Chemical Genomics Center [NCGC] U.S. Environmental Protection Agency [EPA] National Institutes of Environmental Health Sciences [NIEHS] National Toxicology Program [NTP] U.S. Food and Drug Administration [FDA] Tox21 Assay Overview: Estrogen receptor (ER), a nuclear hormone receptor, plays an important role in development, metabolic homeostasis and reproduction. Two subtypes of ER, ER-alpha and ER-beta, have similar expression patterns with some uniqueness in both types. Endocrine disrupting chemicals (EDCs) and their interactions with steroid hormone receptors like ER causes disruption of normal endocrine function. To identify the compounds that inhibit ER signaling, an ER-beta-UAS-bla GripTite cell line (Life Technologies, Madison, WI, USA) containing a beta-lactamase reporter gene under the control of an UAS response element was used to screen Tox21 10K compound library. The cytotoxicity of the Tox21 compound library against the ER-beta-bla cell line was tested in parallel by measuring the cell viability using CellTiter-Glo assay in the same wells.
Tox21 Assay Protocol Summary: ER-beta-UAS-bla HEK293T cells were dispensed at 2,000 cells/4 uL of assay medium containing 2% charcoal stripped FBS per well into black wall/clear-bottom 1536-well plates using a Multidrop Combi (ThermoFisher Scientific, Waltham, MA) dispenser. After the assay plates were incubated at a 37C and 5% CO2 for 6 hr, 23 nL of compounds dissolved in DMSO, positive controls or DMSO only was transferred to the assay plate by a Pintool station (Kalypsys, San Diego, CA), followed by addition of 1 uL (1nM as final concentration) of 17-beta-estradiol (E2) in assay medium using a Flying Reagent Dispenser (FRD, Aurora Discovery, San Diego, CA). The plates were incubated at 37C and 5% CO2 for 16 hr. Then 1 uL of LiveBLAzer B/G FRET substrate was added using a Flying Reagent Dispenser, the plates were incubated at room temperature for 2 hours, and fluorescence intensity was measured by an Envision plate reader (PerkinElmer, Shelton, CT). For cell viability readout that measures cytotoxicity, 4 uL/well of CellTiter-Glo reagent was added into the assay plates using a FRD. After 30 min incubation at room temperature, the luminescence intensity in the plates was measured using a ViewLux (PerkinElmer) plate reader.
% is scaled to controls: 0 for no effect and ±100 for the full control effect; potency is read from the fitted curve at half-maximal effect; tags tell the direction and shape of the fitted curve.

| Structure (SMILES) | Potency | activity change, negative = cytotoxicity |
| --- | --- | --- |
| COc1cc(C=O)ccc1O | inactive | – |
| COc1cccc2c1C(=O)c1c(O)c3c(c(O)c1C2=O)C[C@@](O)(C(C)=O)C[C@@H]3O[C@H]1C[C@H](N)[C@H](O)[C@H](C)O1 | inconclusive: 69 µM [cytotoxic] | – |
| COCC(=O)O[C@]1(CCN(C)CCCc2nc3ccccc3[nH]2)CCc2cc(F)ccc2[C@@H]1C(C)C | active: 18.8 µM | – |
| CCCC1O[C@@H]2C[C@H]3[C@@H]4CCC5=CC(=O)C=C[C@]5(C)[C@H]4[C@@H](O)C[C@]3(C)[C@]2(C(=O)CO)O1 (stereo not given in full) | inconclusive: 54.5 µM [cytotoxic, partial curve, poor fit] | – |
| O=C1NCCN1CCN1CCC(c2cn(-c3ccc(F)cc3)c3ccc(Cl)cc23)CC1 | inconclusive: 10.6 µM [cytotoxic, partial curve] | – |
| CCCCOc1ccc(CC(=O)NO)cc1 | inconclusive: 11.9 µM [cytotoxic, partial curve] | – |
| O=c1n(CCCN2CCN(c3cccc(Cl)c3)CC2)nc2ccccn12 | inactive | – |
| O=C1CCCCC1C1CCCCC1 (stereo not given) | inactive | – |
| Cc1c(C)c2c(c(C)c1OC(=O)CCC(=O)OCCO)CC[C@@](C)(CCC[C@H](C)CCC[C@H](C)CCCC(C)C)O2 | inconclusive: 33.5 µM [cytotoxic] | – |
| CCCCc1cc2ccccc2c(OCCN(C)C)n1 | inconclusive: 23.7 µM [cytotoxic, partial curve, poor fit] | – |
| CC(=O)Oc1ccccc1C(=O)Nc1ncc([N+](=O)[O-])s1 | inconclusive: 13.3 µM [cytotoxic, full curve] | – |
| C=C(C)C(=O)OCCC[Si](Cl)(Cl)Cl | inactive | – |
| Oc1ccc(Cl)cc1Sc1cc(Cl)ccc1O | inconclusive: 23.7 µM [cytotoxic, partial curve] | – |
| CCCCCCOC(=O)c1ccccc1 | inconclusive: 19.3 µM [cytotoxic, full curve] | – |
| Oc1ccccc1O | inconclusive: 27.6 µM [cytotoxic] | – |
| CC(O)C#CC(C)O (stereo not given) | inconclusive: 67.9 µM [cytotoxic, single point] | – |
| O=C(O)C(O)[C@H](O)[C@@H](O)[C@H](O)[C@H](O)CO (stereo not given in full) | inconclusive: 61.8 µM [cytotoxic, single point] | – |
| CC(=O)CC(C)C | inactive | – |
| Nc1ccc(C(=O)Nc2ccccc2N)cc1 | inconclusive: 2.11 µM [cytotoxic, full curve] | – |
| COc1cccc2c1C(=O)c1c(O)c3c(c(O)c1C2=O)C[C@@](O)(C(=O)CO)C[C@@H]3O[C@H]1C[C@H](N)[C@H](O)[C@H](C)O1 | inconclusive: 1.06 µM [cytotoxic, full curve] | – |

| Structure (SMILES) | Potency | activity change, negative = cytotoxicity |
| --- | --- | --- |
| COC(=O)C1=C(C)NC(C)=C(C(=O)OCCN(C)Cc2ccccc2)C1c1cccc([N+](=O)[O-])c1 (stereo not given) | active: 60.8 µM and inconclusive: 33.5 µM [cytotoxic, single point] | – |
| NNc1nc(-c2ccc(N)cc2)cs1 | inconclusive: 34.4 µM [cytotoxic, partial curve, poor fit] | – |
| Cc1c(Cl)cccc1Nc1ccccc1C(=O)O | inconclusive: 13.3 µM [cytotoxic, partial curve] | – |
| Nc1c2ccccc2nc2ccccc12 | inconclusive: 2.14 µM [cytotoxic, full curve] and inconclusive: 3.76 µM [cytotoxic, full curve] | – |
| Nc1cc(C(F)(F)F)ccc1S | inconclusive: 29.8 µM [cytotoxic] | – |
| CCCCCCCCCCCCCC[N+](C)(C)C | active: 26.4 µM and active: 30.6 µM and active: 33.5 µM | – |
| COc1c(C)c2c(c(O)c1C/C=C(\C)CCC(=O)O)C(=O)OC2 | inconclusive: 0.119 µM [cytotoxic, full curve] | – |
| O=C(O)c1cccc(N(Cc2cccnc2)c2ccc(OC(F)F)c(OC(F)F)c2)c1 | inconclusive: 21.7 µM [cytotoxic, partial curve] | – |
| Cc1cccc(Nc2cc(Cl)nc(SCC(=O)O)n2)c1C | inconclusive: 44.7 µM [cytotoxic, partial curve, poor fit] | – |
| O=C1OC(OC(=O)c2cccnc2Nc2cccc(C(F)(F)F)c2)c2ccccc21 (stereo not given) | inconclusive: 29.8 µM [cytotoxic, single point] | – |
| CN(C)c1ccc(/C=C/c2ccc([N+](=O)[O-])cc2)cc1 | – | inactive: -2.95% [at 8.39 µM] |
| C=C1C(=C/C=C2\CCC[C@]3(C)[C@@H]([C@H](C)/C=C/[C@@H](O)C4CC4)CC[C@@H]23)C[C@@H](O)C[C@@H]1O | inconclusive: 7.5 µM [cytotoxic] | – |
| O=C(O)Cc1cccc2ccccc12 | inconclusive: 54.5 µM [cytotoxic, partial curve] | – |
| C[C@H](CCC(=O)O)[C@H]1CC[C@H]2[C@@H]3C(=O)C[C@@H]4CC(=O)CC[C@]4(C)[C@H]3CC(=O)[C@]12C | inactive | – |
| OCCN(CCO)c1nc(N2CCCCC2)c2nc(N(CCO)CCO)nc(N3CCCCC3)c2n1 | inactive | – |
| C=C[C@](C)(O)CC[C@@H]1[C@@]2(C)CCCC(C)(C)[C@@H]2CC[C@@]1(C)O | active: 61.1 µM | – |
| CCCC(C(=O)OCCN(CC)CC)(c1ccccc1)c1ccccc1 | inconclusive: 29.8 µM [cytotoxic] | – |
| CCc1ccc(O)c(C(C)(C)C)c1 | inconclusive: 61.1 µM [cytotoxic, partial curve, poor fit] | – |
| O[C@@H](COc1cccc2ncccc12)CN1CCN(C2c3ccccc3[C@@H]3[C@H](c4ccccc42)C3(F)F)CC1 (stereo not given in full) | inconclusive: 23.7 µM [cytotoxic] | – |
| CCCCCCCCCCCC[N+](C)(C)Cc1ccccc1 | active: 26.8 µM and active: 37.4 µM and active: 11.9 µM | – |
